Laboratory results reported in PubChem BioAssay AID1347417 (National Center for Advancing Translational Sciences (NCATS), 2020).
Screen size: about 120,000 compounds; about 5,300 (4.4%) were called active. Inconclusive results, whose numbers are uncertain, are shown with a selection of clear calls. Calls follow the shape of the dose curve; as a rule, active = well fitted inhibition curve with a large enough effect; inconclusive = small, poorly fitted or top-dose-only effect; inactive = no such curve, though single readings can be large or run the other way. Where the call is inconclusive, the potency comes from a doubtful curve fit.
Potency is read from the fitted curve at half-maximal effect; tags tell the direction and shape of the fitted curve.

Assay: qHTS Primary assay for Inhibitors of Plasmodium falciparum Dd2 growth in vitro; also: nearly all actives have a fitted effect of over 65% in size
Conditions: P. falciparum Dd2 growth, SYBR Green, 72 h; series mostly up to 28.9 µM
Procedure, shortened: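 Readout: SYBR Green fluorescence, 485 nm excitation, 535 nm emission, after ~16 h lysis at 37C. Before that, Dd2-infected red cells (2.5% hematocrit) grew 72 h with compound, 29 uM top final concentration.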
For `CCOC(=O)c1sc(NC(=O)c2cc3nc(-c4ccc(Br)cc4)cc(C(F)(F)F)n3n2)c(C(=O)OCC)c1C`, the Potency was “inactive”. With `CCC(C)C1=NS(=O)(=O)c2cc(NC(=O)c3ccco3)ccc2N1c1ccccc1` (stereo unspecified) the Potency was inconclusive: 0.794 µM [inhibitor, partial curve]. For `COc1ccccc1C(=O)NC(=O)Nc1ccc(-n2nc(C(F)(F)F)cc2C(F)(F)F)cc1`, the Potency was active: 11.2 µM. For `CCCN1CCCCC12Cc1ccccc1CN(C(=O)CCCC(=O)O)C2` (stereo unspecified), the Potency was “inactive”. With `Cc1cnc(CC2CCCN(C(=O)c3ccncc3)C2)n1CC1CC1` (stereo unspecified) the Potency was inconclusive: 7.94 µM [inhibitor, single point]. With `CC(C(=O)NCCc1ccccn1)C1CCOCC1` (stereo unspecified) the Potency was “inactive”. In the case of `CCOc1nc(NC(=O)NS(=O)(=O)Oc2ccccc2Cl)nc(-c2ccccc2)n1`, the Potency is reported as “inactive”. For `CC(C)(O)CCc1cccc(C(=O)NCc2ccc3c(c2)OCCCO3)c1`, the Potency was inconclusive: 14.1 µM [inhibitor, partial curve, poor fit]. In the case of `Cc1ccc(C)n1-c1nnc(N2CCCC(C(=O)NCc3ccccc3)C2)s1` (stereo unspecified), the Potency is reported as inconclusive: 0.0282 µM [inhibitor, full curve, poor fit]. With `COc1cc2nc(NCC(C)c3ccccc3)n3nc(-c4ccccc4)nc3c2cc1OC` (stereo unspecified) the Potency was active: 3.55 µM. In the case of `CNC(=O)c1ccc(Nc2nnc(-c3ccc(C)c(S(=O)(=O)N4CCOCC4)c3)c3ccccc23)cc1`, the Potency is reported as inconclusive: 11.2 µM [inhibitor, single point]. For `O=C(NCC1CC1)c1cccc(OC2CN(Cc3ccncc3F)C2)c1`, the Potency was inconclusive: 3.98 µM [inhibitor, single point]. In the case of `Cc1ccccc1OCc1nc(C2CN(C(=O)c3ccc4ccccc4n3)C2)no1`, the Potency is reported as “inactive”. With `c1nnc(CC2CCNCC2)n1CC1CC1` the Potency was “inactive”. For `COCc1ccc2c(c1)c(OC(C)(C)C(=O)NCCc1cnc[nH]1)nn2Cc1ccccc1`, the Potency was inconclusive: 11.2 µM [inhibitor, single point]. For `O[C@@H]1C[C@@H](c2nnc3n2CCN(Cc2ccc(F)c(F)c2)C3)N(Cc2cccnc2)C1`, the Potency was “inactive”. In the case of `CC(C)OCC(=O)N1CCN(c2nc(-c3ccccc3)nc3c2CCC3)CC1`, the Potency is reported as active: 12.6 µM. In the case of `COc1ccc(OC)c(NC(=O)c2cn(CC(C)C)c(=O)c3cc(OC)c(OC)cc23)c1`, the Potency is reported as inconclusive: 17.8 µM [inhibitor, single point]. For `CCOc1ccccc1Nc1sc(C(=O)c2ccccc2)c(N)c1S(=O)(=O)c1ccc(C)cc1`, the Potency was inconclusive: 3.16 µM [inhibitor, partial curve, poor fit]. For `Cc1ccc(Cn2c(=O)n(CCCCC(=O)NCc3ccccc3Cl)c(=O)c3ccccc32)cc1`, the Potency was inconclusive: 17.8 µM [inhibitor, single point]. For `CN(C)C(=O)CN1C(=O)CO[C@H](c2ccc(NC(=O)c3ccccc3)cc2)[C@H]1CO`, the Potency was “inactive”. In the case of `O=C(CCCN1C(=O)COc2ccc(C(=O)COc3ccc(F)cc3Cl)cc21)NCC1CC1`, the Potency is reported as inconclusive: 1.58 µM [inhibitor, full curve, poor fit]. For `Cc1nc(-c2c3n(c(=O)n(CC(=O)NCc4ccccc4)c2=O)CCCC3)no1`, the Potency was “inactive”. In the case of `Cn1ccnc1CN1CCN(c2nccc(-c3cccnc3)n2)CC1`, the Potency is reported as inconclusive: 12.6 µM [inhibitor, single point]. For `COc1cccc(CCN2CC[C@H]3CN(C(=O)COc4ccccc4)CC[C@H]3CC2=O)c1OC`, the Potency was “inactive”. In the case of `O=C(CC1CCCCC1)N1CCCC(CN2CCCC2)C1` (stereo unspecified), the Potency is reported as inconclusive: 17.8 µM [inhibitor, single point]. With `Cc1c(C(=O)OC2CCCCC2)[nH]c2c1C(=O)CC(c1ccc(C(C)(C)C)cc1)C2` (stereo unspecified) the Potency was inconclusive: 8.91 µM [inhibitor, partial curve]. In the case of `CCOC(=O)c1cnc2ccc(C)cc2c1Nc1ccc(N(CC)CC)cc1`, the Potency is reported as active: 4.47 µM. For `Cn1c(CN(CCN2CCCCC2)CC2CCCN(C3CCCC3)C2)nc2ccccc21` (stereo unspecified), the Potency was inconclusive: 3.16 µM [inhibitor, single point]. With `Cc1cc(C[C@@H]2COC[C@@H]2NC(=O)c2cnn(-c3ccccc3)c2)on1` the Potency was “inactive”. For `COc1ccc2c(CNC3CCCCCC3)c(C(=O)O)n(Cc3ccccc3F)c2c1`, the Potency was inconclusive: 12.6 µM [inhibitor, partial curve, poor fit]. For `CCc1nc2c(c(-c3ccc(O)cc3)n1)CCN(Cc1cccn1C)CC2`, the Potency was active: 8.91 µM. For `COC[C@@H]1CN(Cc2cnn(C)c2)C[C@H]1C(=O)N(C)C`, the Potency was “inactive”. For `CCCC(=O)Nc1cccc(C(=O)NCCN2N=C(c3ccccc3)CCC2=O)c1`, the Potency was inconclusive: 6.31 µM [inhibitor, partial curve]. For `CC(C)CCN1CCC(N2CCN(S(C)(=O)=O)CC2)C1=O` (stereo unspecified), the Potency was “inactive”. For `O=C(NCc1ccccc1)c1cnc2n1CCN(Cc1ccc3c(c1)CCO3)CC2`, the Potency was inconclusive: 12.6 µM [inhibitor, single point]. With `Cc1ccc(CNC(=O)CSc2ncc3c(n2)-c2ccc(Cl)cc2N(Cc2ccccc2)S3(=O)=O)cc1` the Potency was inconclusive: 11.2 µM [inhibitor, single point]. For `Cc1cc(=O)n(CC(=O)Nc2ccc(N(C)C)cc2)c(-c2ccc(Cl)cc2)n1`, the Potency was inconclusive: 20 µM [inhibitor, single point]. For `CN(Cc1cccnc1)Cc1nc(C2(O)CCN(Cc3ccc(C(F)(F)F)cc3)CC2)cs1`, the Potency was inconclusive: 10 µM [inhibitor, single point]. For `COCC1CN(C)CC12CCN(C(=O)Cc1ccc(OC)cc1)CC2` (stereo unspecified), the Potency was inconclusive: 6.31 µM [inhibitor, partial curve, poor fit]. For `CCOC(=O)c1cnc2cc(F)c(F)cc2c1Nc1ccccc1O`, the Potency was inconclusive: 1 µM [inhibitor, single point]. For `Cn1cc(CN2C[C@@H](F)[C@@H](OCc3nc4ccccc4o3)C2)c2ccccc21`, the Potency was inconclusive: 2.51 µM [inhibitor, partial curve, poor fit]. With `Cn1c(=O)c2c(nc(NCCc3ccccc3)n2Cc2ccc(Cl)cc2)n(C)c1=O` the Potency was inconclusive: 17.8 µM [inhibitor, single point]. In the case of `COc1cccc(N2C(=O)NC(=NC3CCCCC3)C23CCN(C(C)=O)C3)c1` (stereo unspecified), the Potency is reported as “inactive”. In the case of `Cc1cccc(C(=O)Nc2sc3c(c2C(=O)NC(C)C)CCCC3)c1`, the Potency is reported as inconclusive: 3.55 µM [inhibitor, partial curve, poor fit]. With `Cc1cc(-n2nnnc2N2CCN(C(=O)Nc3ccc(C)c(F)c3)CC2)ccc1F` the Potency was active: 5.01 µM. In the case of `CCC(C)NC(=O)c1ccc2nc(CCc3ccccc3)oc2c1` (stereo unspecified), the Potency is reported as inconclusive: 10 µM [inhibitor, partial curve, poor fit]. In the case of `CCN(CCCNC(=O)c1nnn2cc(-c3ccccc3)[nH]c(=O)c12)c1ccccc1`, the Potency is reported as active: 8.91 µM. In the case of `Cc1ccc(NC(=O)Cn2c(-c3ccc(F)cc3)nc(C)c(CCO)c2=O)cc1Cl`, the Potency is reported as inconclusive: 1.78 µM [inhibitor, partial curve, poor fit]. In the case of `COc1ccc(-c2nccn3cc(C(=O)NCc4nc5ccccc5n4C)nc23)cc1`, the Potency is reported as inconclusive: 5.62 µM [inhibitor, partial curve, poor fit]. In the case of `c1ccc(Nc2cnc3ccc(-n4ccnc4)nn23)cc1`, the Potency is reported as inconclusive: 7.08 µM [inhibitor, partial curve, poor fit]. With `CN(C)c1ncnc2sc3c(c12)CCN(S(=O)(=O)c1ccccc1)C3` the Potency was inconclusive: 8.91 µM [inhibitor, partial curve, poor fit]. In the case of `CC1=C[C@@H](CN2CCN(c3ccccn3)CC2)[C@H](C(C)C)C[C@H]1Cc1nnc(C)o1`, the Potency is reported as inconclusive: 1.26 µM [inhibitor, full curve, poor fit]. For `CC(C)CCN1CCC2(CN[S+](=O)([O-])c3ccccc3N2)C1` (stereo unspecified), the Potency was inconclusive: 3.16 µM [inhibitor, full curve]. With `COc1ccc(-c2cc([C@H]3CN4CC[C@H]3C[C@@H]4COC(=O)NC(C)C)n(C)n2)cc1` the Potency was inconclusive: 12.6 µM [inhibitor, single point]. With `CC(=O)N1CCc2c(sc3c2c(=O)n(-c2cc(Cl)ccc2C)c(=O)n3Cc2ccccc2F)C1` the Potency was active: 10 µM. With `COc1cc(CNC(=O)[C@H]2CCC[C@H]2NC(=O)c2ccncc2)cc(OC)c1` the Potency was “inactive”. For `CCOc1ccc(-c2nc(C3CC(=O)N(c4ccc(Cl)cc4)C3)no2)cc1` (stereo unspecified), the Potency was “inactive”. In the case of `O=c1c(S(=O)(=O)c2ccccc2)cn(Cc2ccc(F)cc2)c2cc(N3CCOCC3)c(F)cc12`, the Potency is reported as inconclusive: 11.2 µM [inhibitor, single point]. In the case of `CCN(CC)c1cc(CCC(=O)NCc2ccccc2C)ccn1`, the Potency is reported as inconclusive: 17.8 µM [inhibitor, single point]. With `Cc1ccc(S(=O)(=O)c2nc(S(=O)(=O)c3ccc(C)cc3)c(NCCCOC(C)C)s2)cc1` the Potency was active: 2.24 µM. In the case of `CCOC(=O)c1ccc(N2C(=O)c3n[nH]c(-c4cccs4)c3C2c2ccc(CC)cc2)cc1` (stereo unspecified), the Potency is reported as active: 10 µM. In the case of `CCCCN(CCCNC(=O)c1cc(Nc2ccc(OC)cc2)nc2ccccc12)Cc1ccccc1`, the Potency is reported as inconclusive: 10 µM [inhibitor, partial curve]. With `COc1ccc(-n2cc(-c3ccc4c(c3)OCO4)n(CC(=O)Nc3cccc(C)c3C)c2=O)c(OC)c1` the Potency was inconclusive: 17.8 µM [inhibitor, single point]. In the case of `COCC(=O)N[C@H]1C[C@@H](Cc2cc(-c3ccc(OC)cc3)on2)C1(C)C`, the Potency is reported as active: 2 µM. With `COc1cc(OC)cc(C(=O)Nc2ccc(-c3nc4cc(C(C)C)ccc4o3)cc2)c1` the Potency was inconclusive: 12.6 µM [inhibitor, single point].
